In paper PMC12529666:
The entries are a selection whose mix differs from that of the whole data set. At the low end of the ranking the order means little.

These sequences were tested against AGO2 F182del S387D + S824A + S828D + S831D + S834A + del182-182 (UniProt Q9UKV8) (assay: RNA Bind-n-Seq (nitrocellulose filter binding and sequencing)). Settings: constant regions annealed to DNA blockers; guide miR-122 5' phosphate; 30 mM Tris pH 8.0, 100 mM potassium acetate, 2 mM magnesium acetate, 0.5 mM TCEP, 0.005% NP-40, 0.01 mg/ml yeast tRNA; 3 nM AGO2-miR-122, 100 nM RNA library …; high values mean tight binding.

**Q.** With “GAGUUCUACAGUCCGACGAUCCCAACACAUCCCACACCUGGAAUUCUCGGGUGCCAA / UGGAGUGUGACAAUGGUGUUUG / GATCGTCGGACTGTAGAACTC / TTGGCACCCGAGAATTCCA” as the sequence, how does the binding signal (fold enrichment over input) read?
**A.** Its binding signal (fold enrichment over input) is 1.11.

**Q.** Which binding signal (fold enrichment over input) does the source give for “GAGUUCUACAGUCCGACGAUCCCAACAUGUUUCGCACCUGGAAUUCUCGGGUGCCAA / UGGAGUGUGACAAUGGUGUUUG / GATCGTCGGACTGTAGAACTC / TTGGCACCCGAGAATTCCA” here?
**A.** Its binding signal (fold enrichment over input) is 0.0399.

**Q.** How did the binding signal (fold enrichment over input) turn out when “GAGUUCUACAGUCCGACGAUCCCAACAUACUCCGCACCUGGAAUUCUCGGGUGCCAA / UGGAGUGUGACAAUGGUGUUUG / GATCGTCGGACTGTAGAACTC / TTGGCACCCGAGAATTCCA” was run?
**A.** The binding signal (fold enrichment over input) was 3.65.

**Q.** With “GAGUUCUACAGUCCGACGAUCCCAACAUGCCUCACACCUGGAAUUCUCGGGUGCCAA / UGGAGUGUGACAAUGGUGUUUG / GATCGTCGGACTGTAGAACTC / TTGGCACCCGAGAATTCCA” as the sequence, how does the binding signal (fold enrichment over input) read?
**A.** Its binding signal (fold enrichment over input) is 0.9.

**Q.** With “GAGUUCUACAGUCCGACGAUCCCAACGCGUCCCGCACCUGGAAUUCUCGGGUGCCAA / UGGAGUGUGACAAUGGUGUUUG / GATCGTCGGACTGTAGAACTC / TTGGCACCCGAGAATTCCA” as the sequence, how does the binding signal (fold enrichment over input) read?
**A.** Its binding signal (fold enrichment over input) is 0.0444.

**Q.** Which binding signal (fold enrichment over input) does the source give for “GAGUUCUACAGUCCGACGAUCCCAACAUGCCUCGCACCUGGAAUUCUCGGGUGCCAA / UGGAGUGUGACAAUGGUGUUUG / GATCGTCGGACTGTAGAACTC / TTGGCACCCGAGAATTCCA” here?
**A.** Its binding signal (fold enrichment over input) is 0.0547.

**Q.** “GAGUUCUACAGUCCGACGAUCCCAACGUACUCUACACCUGGAAUUCUCGGGUGCCAA / UGGAGUGUGACAAUGGUGUUUG / GATCGTCGGACTGTAGAACTC / TTGGCACCCGAGAATTCCA” was tested. Which binding signal (fold enrichment over input) did it give?
**A.** Its binding signal (fold enrichment over input) is 0.115.
